B1: LINE1-mini (parent)
chain: GGCAGAGCUCAACACAGCGUGGCAAAGUGGCUGUGGCUAGACUGCC

Read counts are not given, so values of variants with three or more changes are uncertain.

The data set covers variants of B1. The data set is described as follows: self-cleavage, relative activity (ratio to wild type); higher = more cleavage; in vitro, sequencing; the parent is a self-cleaving ribozyme.
As to C10A U20A G21A A24C G29C G33C, the self-cleavage was found to be 0.02. In the case of C18U U20A A24C G40C C46A it was 0.13. In the case of G5C A11C U32A it was 0.01; in that of C8A G35A G40U, 0.09; in that of G7C A11U G27A, 0.01. In the case of G2C C18G G27U C31A U34C it was 0.04. As for G19C C23G A24C U28C G35A, the self-cleavage amounted to 0.19. In the case of C18U C23A A39G U43A it was 0.1; in that of C3A U9G C23U G27A C42U C45A, 0.04. Consider G2U G7A G30U U32C G35C, for which the self-cleavage amounted to 0.13.

For the variant G7A U9C G17A G27A C31A G44A, the self-cleavage stood at 0.01.

Turning to U20A G40U C42U, the self-cleavage is 0.01. As for G5U A14G A24G, the self-cleavage is 0. In the case of C10A G33U A39G it was 0.01; in that of A16U G30U G36U, 0.11. In the case of C3G G17U U20G it was 0.04; in that of G5C A6C G27U C46A, 0.19; in that of U9C A12U G29A G30C C31A, 0.01.

Turning to A6C C31G U32C U38A C42A, the self-cleavage stood at 0.01. In the case of G7A C8U C13U A14C C37G it was 0.88; in that of G1C C8G G29U, 0.04. In the case of A11G C18A G27U G40U it was 0; in that of G2U C8A G22A A39U, 0.03.

As to C3A G7C C10G G40U, the self-cleavage was 0.02. In the case of A16C U34G U38G it was 0.04. In the case of U9A C10U G22A G44C, the self-cleavage worked out at 0.03. For G2C U9C G21A, the self-cleavage came out at 0.07.

On to C10G C23A C31U, for which the self-cleavage is 0.12.

For A12G G21U A41G, the self-cleavage amounted to 0. In the case of C13U G27U C37G it was 0.03; in that of A12C A14G G29U, 0.19; in that of A6G G7A A12G, 0.03.

Consider G1U U34G C42G, for which the self-cleavage worked out at 0.03. Turning to C3G A4C G21A U28A C31G U43G, the self-cleavage was 0.1. In the case of G2C C10U C46A it was 0.28; in that of G5C G7A A12C C13A G21A, 0.25. In the case of G1U G33U G40C, the self-cleavage is 0.01.

G5C C8G G19C: the self-cleavage worked out at 0.05. In the case of G7U G19U A26C G27U U28G U38C it was 0.01. In the case of G1A C18U G19A C23A C45G it was 0.43; in that of C13A A39C G40A C42A, 0.07; in that of A16U G40U C46U, 0.05. On to G5A A11C A12U C18A A24U G27C A41C, for which the self-cleavage was 0.01.

On to G29A G30U G35A C46U, for which the self-cleavage came out at 0.13. In the case of G19C G22C A41U it was 0.09; in that of C3G A6G C10U C13G C18A, 0.02; in that of G1U G27U C37U, 0.05. In the case of C3G G35U C45A it was 0.03; in that of U9C G30U G36A U38G, 0.01. Regarding G7U G22U C23A G29A, the self-cleavage worked out at 0.03. As to A12U U34A G44U C45U C46A, the self-cleavage came out at 0.03.

For A25U G29A G30A, the self-cleavage was determined as 2.36. In the case of C15U C31U C45G it was 0.07. In the case of G1C A6G A25U G44U it was 0.02; in that of A16U C18A G40A, 0.01; in that of G1A G33U G35C, 0.07. Turning to G17U C31G G40A, the self-cleavage turned out to be 0.04. In the case of U20G G21A U28A G30A C31A it was 1.36. In the case of G2U A4G C15A C18G G36C it was 0.07. In the case of C18A G27A G36A C45A it was 0.05; in that of U20G U32C G35A, 0.05. C3G G35A G36A: the self-cleavage came out at 0.14.

In the case of G21U A24C U28C G30U, the self-cleavage is 0.12. In the case of A6U G7A G17A G21C C23U U34G it was 0.01. For the variant C18U U34C G44C, the self-cleavage stood at 0.03.

In the case of A6C G21C G29A, the self-cleavage was found to be 0.28. In the case of A4C G33C G35U it was 0.01; in that of A4G G21A C46G, 0.51; in that of A11C A41G C42U, 0.04. Consider A16C U34A G44C, for which the self-cleavage came out at 0.05. In the case of C13A A14G U38G it was 0.02. In the case of C8A G21C U34A it was 0.17; in that of G1C C3U G44C, 0.63; in that of C3A C8G U20A C23U, 0.19. In the case of C8A U9C A39G it was 0.08; in that of C15U A16U U34A, 0.02.

Take C13A C31A G33A: the self-cleavage worked out at 0.1. In the case of C13A G17U A26U it was 0.08.

With A16C A24C G35U, the self-cleavage is 0.01. For C13G A16C C37U A41C, the self-cleavage amounted to 0.03.

As for C3G A14C C42U, the self-cleavage came to 0.06. In the case of C23G U28A A39G it was 0.01. In the case of A4C C18A C45A it was 0.01; in that of C10U U20A G30C, 0.45; in that of G1U C3A G5A U9A, 1.87.

A24C G33A C46G: the self-cleavage stood at 0.06.

As for U34C G36C A41U, the self-cleavage was 0.07. In the case of G5C C18A U20A it was 0.03.

With C10U G17U G35A, the self-cleavage worked out at 0.01. In the case of C10U U20C C46G it was 0.46; in that of C10A A12C G21U, 0.01. In the case of G17C G33C A41G, the self-cleavage was determined as 0.02.

For the variant U9G G17C G35C, the self-cleavage turned out to be 0.02.

As to G33A G35U C37G, the self-cleavage is 0.03.

For U32G C37A A39C G40A, the self-cleavage turned out to be 0.1. In the case of G2U A6G C8U it was 0.05; in that of G7C C8A U9A C18G U20C C42G, 0.13; in that of A4C G7C C8U G30C C42G, 0.02.

As to G17A G33A C42A, the self-cleavage amounted to 0.1.

As for U20C A24G A39G, the self-cleavage came to 0.03.

With A4G G7C U9G C46U, the self-cleavage was 0.08. In the case of C3G U20C C42U it was 0.11; in that of G2A C10U C18A G40A, 0.07; in that of A11U G21A C23A, 0.53.

Take G5C G7A G29C G35U: the self-cleavage was determined as 0.08. In the case of G1A G2A C10G C18G G19C C23A A24G it was 0.02; in that of C15G A16U G19C G44A, 0.01. Take A4U U9C C23A G35C: the self-cleavage came to 0.06.

For the variant C13A U20A A24C G33U G35A, the self-cleavage stood at 0.04. As to U20C U34G U43C, the self-cleavage was 0. For the variant A26G G27C G33U, the self-cleavage is 0.04.

Regarding U9G G22C A25C G36U, the self-cleavage worked out at 0.45.

G2A A14C C31G: the self-cleavage amounted to 0.06. Consider G2C G5U A12U G22U A26U G40C A41U, for which the self-cleavage stood at 0.01. In the case of C3A G21C G30C C31G it was 0.07; in that of G2U A25C G36U, 0.01. C3A G7U G27U G44U: the self-cleavage was 0.29. In the case of U32G C45A C46A it was 0.06. As for C18A G22U C37A C45A, the self-cleavage was found to be 0.12.

In the case of C23U G30A C45U, the self-cleavage stood at 0.51. For C13G A16G C45G, the self-cleavage was 0.08. Turning to C3A A6C C10A G27U C42A, the self-cleavage was found to be 0.02.

Regarding G1U A16G G40U, the self-cleavage amounted to 0.04. In the case of A12G C15A G30U G35U it was 0.03; in that of G7A G17A U28G G44U, 0.08. In the case of A6U G7C C23U C31U it was 0.28. In the case of U9A G27A G40U it was 0.14; in that of C3G G22A U34C C46G, 0.08.

For the variant C3A G5U U32G, the self-cleavage came to 0.13. In the case of C10G A14U C18A it was 0; in that of C10U C13U C23U A41U, 0.04.

As for C15G A25U U32C A41C, the self-cleavage was 0.01. In the case of G2C C10G A11C A12C G17U G22U G27C C31A U34G it was 0; in that of A4G C8G A16G G21A, 0.02. In the case of C3U G7C A14G C23G G44C, the self-cleavage is 0.09.

Turning to C18A G27C G29C U43A, the self-cleavage stood at 0.06. In the case of C3G G7C U32C it was 0.23. In the case of G17A G33A C37A G44A, the self-cleavage worked out at 0.42.

With G5C A26U G33A, the self-cleavage came out at 0.07. In the case of G1A A4G A6U G21U it was 0.11; in that of C8G G17C C42U, 0. In the case of G1U C15A U43A it was 0; in that of C3U U9C G29A, 0.04. In the case of C10G C15U G19U it was 0.16; in that of G21C G40C C42G C45G, 0.04; in that of C15A U28A G30A G40U A41G G44A, 0.03. C10A G30A C37A: the self-cleavage came out at 0.04. In the case of C23G A39G C45G it was 0.05; in that of G35U G36C U43G, 0.37.

With C18G G35C G40A, the self-cleavage was determined as 0.02.

With G2U U28A U32G U43A, the self-cleavage stood at 0.03. In the case of G17U G21A G33U it was 0.07. In the case of G1U U9C G36C it was 0. On to U9C A12U G19U G22U C23U G30A, for which the self-cleavage is 0.01. In the case of A6C A12U A26U it was 0.26. In the case of G5A G30C C45A it was 0.04; in that of U9G U20A A41C, 0.1; in that of G5U G22C U43C, 0.09.

A6U U9A G40A U43A: the self-cleavage is 0.13. In the case of G7U U28A C42A it was 0.02; in that of G2U C3A G36C, 0.11; in that of A6U C8G C18G U20C C37G, 0.09. In the case of C3A U9A C10A C45G C46A it was 0.06. In the case of G1A U9A G17C G27C, the self-cleavage was determined as 0.08. In the case of C23A G29U A39C U43A C45G it was 0.99. In the case of A14G G19C C37U it was 0.02; in that of C3U C15U A16G A24G C31U, 0.03.

The values are drawn from the RNAGym collection of RNA variant scans (doi:10.7554/elife.90254).
